The text below walks through data of the antibiotic and cytotoxicity screens of Wong et al. (2023).

The list shows a part of the results.

Experiment [1] concerns HSkMC (human skeletal muscle cells). Nature of the experiment: cytotoxicity call (relative viability < 0.9). The settings on record: 10 µM.
Experiment [2] concerns S. aureus RN4220. Nature of the experiment: growth inhibition call (relative growth <= 0.2). The settings on record: 50 µM.

Take `C=CCn1c(N2CCN(c3ccc(OC)cc3)CC2)nc2c1c(=O)n(C)c(=O)n2C`: the cytotoxicity call in experiment [1] is “inactive”. In experiment [2], the growth inhibition call was “inactive”.

As for `C[C@@H]1CN([C@@H](C)CO)C(=O)Cc2cc(NC(=O)C3CC3)ccc2O[C@H]1CN(C)S(=O)(=O)c1cccs1`, the cytotoxicity call in experiment [1] was “inactive”. In experiment [2], the growth inhibition call was “inactive”.

For the molecule `O=C(C[C@H]1C=C[C@@H](NS(=O)(=O)c2ccccc2F)[C@H](CO)O1)NCCCN1CCOCC1`, the cytotoxicity call in experiment [1] is “inactive”. For the same molecule, the growth inhibition call in experiment [2] is “inactive”.

Turning to `C[C@@H]1CN([C@H](C)CO)C(=O)c2cc(NS(=O)(=O)c3ccccc3)ccc2O[C@@H](C)CCCCO[C@H]1CN(C)C(=O)C1CCCCC1`, the cytotoxicity call in experiment [1] is “inactive”. Also, the growth inhibition call in experiment [2] is “inactive”.

For the molecule `O=S1(=O)[C@@H]2C[C@H]3C=CC2(CN1C1CC1)O3`, in experiment [1], the cytotoxicity call was “inactive”. In experiment [2], the growth inhibition call was “inactive”.

Turning to `Cc1noc(C)c1NC(=O)N(C)C[C@H]1Oc2ccc(NC(=O)C3CC3)cc2CC(=O)N([C@@H](C)CO)C[C@@H]1C`, in experiment [1], the cytotoxicity call is “inactive”. The growth inhibition call in experiment [2] was “inactive”.

In the case of `COc1ccc(NC(=O)Nc2ccc3c(c2)C(=O)N([C@H](C)CO)C[C@@H](C)[C@H](CN(C)Cc2ccc(Oc4ccccc4)cc2)O3)cc1`, the cytotoxicity call in experiment [1] was “inactive”. For the same molecule, the growth inhibition call in experiment [2] was “inactive”.

With `C[C@H]1CN([C@@H](C)CO)C(=O)c2cccc(NC(=O)c3ccncc3)c2O[C@@H]1CN(C)Cc1ccc(Oc2ccccc2)cc1`, the cytotoxicity call in experiment [1] was “inactive”. Besides, in experiment [2], the growth inhibition call was “inactive”.

For the molecule `COc1ccc(S(=O)(=O)N(C)C[C@H]2Oc3ccc(NC(=O)CCN4CCOCC4)cc3C(=O)N([C@@H](C)CO)C[C@@H]2C)cc1`, the cytotoxicity call in experiment [1] is “inactive”. For the same molecule, in experiment [2], the growth inhibition call was “inactive”.

`COc1cnc(NS(=O)(=O)c2ccc(N)cc2)nc1`: the cytotoxicity call in experiment [1] was “inactive”. In addition, the growth inhibition call in experiment [2] was “inactive”.

As for `C[C@@H]1CN([C@H](C)CO)C(=O)c2cc(NS(=O)(=O)c3ccc(Cl)cc3)ccc2O[C@@H](C)CCCCO[C@H]1CN(C)Cc1ccc2c(c1)OCO2`, the cytotoxicity call in experiment [1] is “inactive”. Also, the growth inhibition call in experiment [2] was “inactive”.

Consider `COc1ccc(S(=O)(=O)N(C)C[C@H]2Oc3ccc(NS(=O)(=O)c4c(C)noc4C)cc3CC(=O)N([C@H](C)CO)C[C@@H]2C)cc1`, for which the cytotoxicity call in experiment [1] was “inactive”. In addition, in experiment [2], the growth inhibition call is “inactive”.

Consider `O=C(C[C@@H]1CC[C@H](NC(=O)Cc2ccccn2)[C@@H](CO)O1)NCCCN1CCOCC1`, for which the cytotoxicity call in experiment [1] is “inactive”. Also, the growth inhibition call in experiment [2] is “inactive”.

As to `C[C@@H]1CCCCO[C@@H](CN(C)C(=O)Nc2ccc3c(c2)OCO3)[C@H](C)CN([C@H](C)CO)C(=O)c2cc(NC(=O)C3CCCCC3)ccc2O1`, in experiment [1], the cytotoxicity call is “inactive”. Moreover, the growth inhibition call in experiment [2] was “inactive”.

As to `COc1ccc(S(=O)(=O)N(C)C[C@@H]2Oc3ccc(NS(=O)(=O)c4ccc(F)cc4)cc3C(=O)N([C@H](C)CO)C[C@@H]2C)cc1`, the cytotoxicity call in experiment [1] is “inactive”. The growth inhibition call in experiment [2] was “inactive”.

`COc1ccc(NC(=O)Nc2ccc3c(c2)C(=O)N([C@H](C)CO)C[C@@H](C)[C@@H](CN(C)Cc2ccc(C(F)(F)F)cc2)O3)cc1`: in experiment [1], the cytotoxicity call was “inactive”. Also, in experiment [2], the growth inhibition call is “inactive”.

As to `NCc1ccc(-c2nc3ccccc3o2)cc1`, the cytotoxicity call in experiment [1] is “inactive”. For the same molecule, in experiment [2], the growth inhibition call was “inactive”.

As for `C[C@@H]1CCCCO[C@@H](CN(C)S(=O)(=O)c2ccccc2)[C@@H](C)CN([C@@H](C)CO)C(=O)c2cc(NC(=O)Nc3ccc(F)cc3)ccc2O1`, the cytotoxicity call in experiment [1] is “inactive”. In addition, in experiment [2], the growth inhibition call was “inactive”.

On to `C[C@H]1CN([C@@H](C)CO)C(=O)Cc2cc(NC(=O)Nc3ccc(C(F)(F)F)cc3)ccc2O[C@H]1CN(C)S(C)(=O)=O`, for which, in experiment [1], the cytotoxicity call is “inactive”. The growth inhibition call in experiment [2] is “inactive”.

As to `COCCNC(=O)C[C@@H]1C[C@@H]2c3cc(NS(C)(=O)=O)ccc3O[C@@H]2[C@@H](CO)O1`, the cytotoxicity call in experiment [1] is “inactive”. The growth inhibition call in experiment [2] is “inactive”.

With `C[C@@H]1CN([C@H](C)CO)C(=O)c2cc(NC(=O)Cc3ccccc3)ccc2O[C@@H](C)CCCCO[C@@H]1CN(C)Cc1ccc(Cl)c(Cl)c1`, in experiment [1], the cytotoxicity call was “inactive”. In addition, the growth inhibition call in experiment [2] was “inactive”.

`CC(C)NC(=O)N(C)C[C@H]1Oc2ccc(NC(=O)Cc3ccccc3)cc2CC(=O)N([C@H](C)CO)C[C@H]1C`: the cytotoxicity call in experiment [1] is “inactive”. The growth inhibition call in experiment [2] was “inactive”.

In the case of `C[C@@H]1CN([C@@H](C)CO)C(=O)Cc2cc(NC(=O)C3CCCCC3)ccc2O[C@H]1CN(C)Cc1ccc(-c2ccccc2)cc1`, in experiment [1], the cytotoxicity call is “inactive”. In experiment [2], the growth inhibition call is “inactive”.

As to `C[C@@H]1CN([C@H](C)CO)C(=O)c2cc(NC(=O)Nc3cccc4ccccc34)ccc2O[C@H]1CN(C)C(=O)Nc1ccc(F)cc1`, the cytotoxicity call in experiment [1] is “inactive”. Further, the growth inhibition call in experiment [2] is “inactive”.

Take `C[C@@H]1CCCCO[C@@H](CN(C)C)[C@H](C)CN([C@@H](C)CO)C(=O)c2cc(NC(=O)Nc3ccc(C(F)(F)F)cc3)ccc2O1`: the cytotoxicity call in experiment [1] is “inactive”. Besides, the growth inhibition call in experiment [2] is “inactive”.

Regarding `C[C@@H]1CN([C@@H](C)CO)C(=O)Cc2cc(NC(=O)CCCN(C)C)ccc2O[C@H]1CN(C)S(=O)(=O)c1ccc(Cl)cc1`, the cytotoxicity call in experiment [1] is “inactive”. The growth inhibition call in experiment [2] is “inactive”.

Take `COc1ccc2c3c(n(c2c1)C)[C@H](CO)N(C[C@]13CCN(CC1)C(=O)c1ccccc1F)C(=O)Nc1ccc(cc1)F`: in experiment [1], the cytotoxicity call was “inactive”. Moreover, the growth inhibition call in experiment [2] is “inactive”.

For the molecule `Cc1ccc(S(=O)(=O)N(C)C[C@@H]2OCCCC[C@H](C)Oc3ccc(NC(=O)Nc4cccc5ccccc45)cc3C(=O)N([C@H](C)CO)C[C@@H]2C)cc1`, the cytotoxicity call in experiment [1] is “inactive”. For the same molecule, in experiment [2], the growth inhibition call is “inactive”.

With `C[C@H]1CN([C@@H](C)CO)C(=O)c2cc(NC(=O)Nc3cccc4ccccc34)ccc2O[C@H]1CN(C)Cc1ccc(C(=O)Nc2ccccc2N)cc1`, the cytotoxicity call in experiment [1] is “inactive”. In addition, the growth inhibition call in experiment [2] was “inactive”.
